For the assay, the system named is Xcv (Xanthomonas campestris). It counts as cell-based, Xanthomonas campestris pv. vitians.

`CC1(C)S[C@@H]2[C@H](NC(=O)[C@H](N)c3ccccc3)C(=O)N2[C@H]1C(=O)O` [ampicillin] displayed a ZOC of 0 mm.

Source of the values: patent publication US10993436B2 (priority 2016, dated 2021).
